PubChem BioAssay AID588342 (National Center for Advancing Translational Sciences (NCATS), 2011)
About 25,000 (6.9%) of roughly 360,000 compounds were called active. The inconclusive results got no clear call from the source; some entries with a clear call stand among them for comparison. Calls come from the whole dose curve; as a rule, active = well fitted inhibition curve with a large enough effect; inconclusive = small, poorly fitted or top-dose-only effect; inactive = flat fitted curve, though single readings scatter. Where the call is inconclusive, the potency comes from a doubtful curve fit.

Each compound was assayed against Luciferin 4-monooxygenase (Photinus pyralis) (UniProt P08659) (assay: qHTS profiling assay for firefly luciferase inhibitor/activator using purifed enzyme and Km concentrations of substrates (counterscreen for miR-21 project)). Conditions: purified FLuc, luminescence inhibition; series mostly up to 57.5 µM.
Method in brief: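 Biochemical qHTS of compounds, final roughly 60 µM downward over six points, against 10 nM purified firefly luciferase using Km concentrations of substrates (10 uM D-luciferin, 10 uM ATP) in Tris acetate pH 7.5 buffer; luminescence output.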
Note: nearly all actives have a fitted effect of over 55% in size.
Potency is the fitted concentration of half-maximal effect; tags give direction and shape of the fitted curve.

Chain of UniProt P08659 (P08659 whole entry, looked up): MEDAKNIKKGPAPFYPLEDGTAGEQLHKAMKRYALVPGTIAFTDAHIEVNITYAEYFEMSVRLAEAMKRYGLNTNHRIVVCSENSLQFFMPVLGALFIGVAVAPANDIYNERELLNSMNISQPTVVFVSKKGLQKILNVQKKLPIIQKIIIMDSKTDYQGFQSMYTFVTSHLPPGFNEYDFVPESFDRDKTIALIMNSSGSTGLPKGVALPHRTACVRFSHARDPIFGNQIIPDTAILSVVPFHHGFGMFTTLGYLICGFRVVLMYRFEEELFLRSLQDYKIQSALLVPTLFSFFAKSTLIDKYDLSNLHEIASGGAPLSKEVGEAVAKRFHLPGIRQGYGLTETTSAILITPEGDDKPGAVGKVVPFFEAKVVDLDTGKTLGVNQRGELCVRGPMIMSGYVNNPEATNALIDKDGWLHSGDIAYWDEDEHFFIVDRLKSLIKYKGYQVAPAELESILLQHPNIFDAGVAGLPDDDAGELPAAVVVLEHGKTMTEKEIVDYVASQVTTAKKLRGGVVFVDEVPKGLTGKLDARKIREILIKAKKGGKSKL

| SMILES | Potency |
| --- | --- |
| O=c1c2c3c(sc2nc(NCCO)n1CCc1ccccc1)CCCCC3 | inconclusive: 37.9 µM [inhibitor, single point] |
| COc1ccc(CN(C)C(C)C(=O)N(C)CC(=O)Nc2ccc(C)cc2)cc1F (stereo not given) | inactive |
| O=C(CC1S/C(=N/N=C/c2ccco2)NC1=O)Nc1ccccc1 (stereo not given) | inactive |
| Cc1ccc(C)c(OCCCn2c(-c3ccc(Cl)cc3)nc3ccccc3c2=O)c1 | inactive |
| CCOC(=O)CCCn1ncn2c(cc3occc32)c1=O | inconclusive: 23.9 µM [inhibitor, single point] |
| CCCCc1nnc(NC(=O)C2=COCCO2)s1 | active: 16.9 µM |
| Cc1nc2ccccc2c(=O)n1/N=C/c1ccc(C(C)C)cc1 | inconclusive: 16.9 µM [inhibitor, partial curve] |
| Cc1cccc(NC(=O)c2ccc(F)c(S(=O)(=O)N(C)C3CCCCC3)c2)c1 | inactive |
| O=C(CCNC(=O)c1ccccc1Cl)NCC(c1ccco1)N1CCCC1 (stereo not given) | inactive |
| CC1CN(c2ccc(NC(=S)NNCCC#N)cc2)CC(C)O1 (stereo not given) | inactive |
| COc1ccc(O)c(-c2nc(N)nc(N)n2)c1 | inconclusive: 15.1 µM [inhibitor, single point] |
| CCOCCCNC(=O)C(c1ccc(Cl)cc1)N(Cc1ccc2c(c1)OCO2)C(=O)c1ccccc1O (stereo not given) | inconclusive: 37.9 µM [inhibitor, partial curve, poor fit] |
| O=C(NCc1ccc2c(c1)OCO2)C1CCN(S(=O)(=O)c2ccc(Br)s2)CC1 | inactive |
| O=C(N/N=C/c1ccc2c(c1)OCCO2)c1ccncc1 | active: 9.53 µM |
| COc1ccc(S(=O)(=O)Nc2cc(-c3cn4cccc(C)c4n3)ccc2C)cc1C | inconclusive: 10.7 µM [inhibitor, partial curve] |
| CC(=O)Nc1ccc(NC(=O)CSc2ccc([N+](=O)[O-])cn2)cc1 | inactive |
| O=C(Nc1ccccc1N1CCOCC1)c1csc2c1CCCC2 | inconclusive: 16.9 µM [inhibitor, partial curve] |
| O=C(c1ccc2c(c1)OCCO2)N(Cc1cccnc1)c1nc2ccc(Cl)cc2s1 | inconclusive: 37.9 µM [inhibitor, partial curve, poor fit] |
| CC(C)n1cnnc1SCC(=O)NC(=O)c1ccccc1 | inactive |
| NC(=O)C1CCN(C(=O)c2ccc3c(=O)n(Cc4ccco4)c(SCC(=O)c4ccc(F)cc4)nc3c2)CC1 | inconclusive: 10.7 µM [inhibitor, partial curve, poor fit] |
| CCC(C)NC(=O)c1ccccc1NC(=O)C1CCN(S(=O)(=O)Cc2ccccc2)CC1 (stereo not given) | inactive |
| CCOC(=O)c1sc2ncn(/N=C/c3ccc(O)c(OC)c3)c(=O)c2c1C | inactive |
| COc1ccc2oc(C(=O)NCc3cc(OC)c(OC)cc3OC)c(C)c2c1 | inconclusive: 37.9 µM [inhibitor, partial curve, poor fit] |
| CC(C)(C)c1ccc(OCCC(=O)OCC(=O)Nc2ccc(N3CCOCC3)cc2)cc1 | inconclusive: 3.38 µM [inhibitor, partial curve, poor fit] |
| CS(=O)(=O)c1ccc2nc(NC(=O)c3ccco3)sc2c1 | active: 4.78 µM |

| SMILES | Potency |
| --- | --- |
| CCOC(=O)C1=C(CN2CCN(c3cc(C)ccc3C)CC2)NC(=O)NC1c1ccccc1 (stereo not given) | inactive |
| CCOc1cc2c(C#N)c(N3CCOCC3)nc(N)c2c(N)n1 | inconclusive: 37.9 µM [inhibitor, single point] |
| CCOC(=O)c1cc(-c2ccc(C)cc2)n(CC(=O)Nc2ccc(OC)c(Cl)c2)c1C | inactive |
| COc1ccc(OCc2cc(C(=O)NC3CCc4ccccc43)no2)c(Cl)c1 (stereo not given) | inactive |
| COc1ccc(OCC(O)CN2C(=O)c3ccccc3S2(=O)=O)cc1 (stereo not given) | inconclusive: 23.9 µM [inhibitor, partial curve, poor fit] |
| O/N=C(/CCc1ccccc1)C1(O)CCCCC1 | inactive |
| CCOc1ccc(NC(=O)c2csc3c2CCCC3)cc1 | active: 2.69 µM |
| Cc1nn(CC(=O)NCc2cccc(F)c2)c(=O)c2c(C)n(-c3ccc(Cl)cc3)nc12 | inactive |
| COc1cc(OC)cc(C(=O)Nc2nnc(SCC(=O)NCc3ccco3)s2)c1 | inconclusive: 19 µM [inhibitor, partial curve] |
| O=C(O)c1cnc(-c2ccccc2)nc1-c1ccccc1 | inconclusive: 23.9 µM [inhibitor, partial curve, poor fit] |
| CCOC(=O)c1c(C)[nH]c(C(=O)CN2C(=O)NC3(CCCC3)C2=O)c1C | inconclusive: 26.9 µM [inhibitor, single point] |
| Cc1ccc(C)c(OCC(=O)Nc2ccc(S(=O)(=O)Nc3ncccn3)cc2)c1 | inactive |
| CCCCCCCC(=O)NNC(=O)c1c(O)c2ccccc2n(CCC)c1=O | inconclusive: 3.79 µM [inhibitor, partial curve, poor fit] |
| Cn1c(=O)c(-c2ccccc2N)nc2ccccc21 | inconclusive: 26.9 µM [inhibitor, partial curve, poor fit] |
| COc1cccc(-c2cc(C(F)(F)F)c(C#N)c(=O)[nH]2)c1 | inconclusive: 21.3 µM [inhibitor, single point] |
| COC(=O)C(C)NC(=O)c1ccc(C(C)(C)C)cc1 (stereo not given) | active: 19 µM |
| O=c1[nH]c2ccccc2nc1Cc1ccc(Cl)cc1 | inactive |
| Cc1cc(C(=O)CSc2ncccn2)c(C)n1-c1cccc(F)c1 | active: 2.39 µM |
| COc1ccc(NC(=O)N2CCCC(C(=O)NCCc3ccccc3)C2)cc1 (stereo not given) | inactive |
| COc1ccc(CNC(=O)Cc2coc3ccc(C(C)C)cc23)cc1 | inconclusive: 26.9 µM [inhibitor, partial curve, poor fit] |
| COC(=O)Nc1sc2c(c1C(N)=O)CCC(C)C2 (stereo not given) | inconclusive: 12 µM [inhibitor, partial curve] |
| Cc1ccccc1C(=O)NNC(=S)NC(=O)c1ccc(Cl)cc1Cl | inactive |
| COc1ccc(OCCSc2ncn[nH]2)cc1 | active: 13.5 µM |
| CCC(=O)Nc1cccc(-n2nnnc2SCC(=O)c2ccc(C)c(C)c2)c1 | active: 15.1 µM |
| CC(=O)c1cc(Cl)ccc1OCC(=O)Nc1cccc(S(=O)(=O)N2CCCC2)c1 | inconclusive: 2.69 µM [inhibitor, full curve] |

| SMILES | Potency |
| --- | --- |
| COc1ccccc1Nc1nc2ccc(C)cc2n2cnnc12 | inconclusive: 8.49 µM [inhibitor, partial curve, poor fit] |
| O=[N+]([O-])c1ccccc1N/N=C\c1ccccc1F | inconclusive: 0.536 µM [inhibitor, full curve] |
| COc1cccc(OC)c1C(=O)Nc1nc2ccc([N+](=O)[O-])cc2s1 | inconclusive: 23.9 µM [inhibitor, partial curve, poor fit] |
| O=C(CSc1ccccc1)Nc1ccc2c(c1)OCCO2 | active: 2.39 µM |
| COc1ccc(-c2cn(-c3ccc(OC)cc3)c(=S)[nH]2)cc1 | inconclusive: 26.9 µM [inhibitor, partial curve, poor fit] |
| CCOC1=C/C(=C/c2c(N)n3nc(CC(=O)N4CCCC4)sc3nc2=O)C=CC1=O | inactive |
| CC(C)c1ccc(NC(=O)CN2C(=O)c3cccc4cccc2c34)cc1 | inactive |
| COc1cccc(/C=C/C(=O)NCc2cn3cc(Cl)ccc3n2)c1OC | inconclusive: 26.9 µM [inhibitor, single point] |
| CSc1nnc2c(n1)c(C)nn2-c1ccc(C)cc1 | inconclusive: 0.953 µM [inhibitor, full curve] |
| O=C(COc1ccc(F)cc1)Nc1nccs1 | active: 7.57 µM |
| CCOc1ccc(/C=N/n2cc(-c3ccccc3)[nH]c2=S)cc1 | inconclusive: 9.53 µM [inhibitor, partial curve] |
| Cn1cc(NC(=O)c2cc(NC(=O)c3cc(NC=O)cn3C)cn2C)cc1C(=O)NCCC(=N)N | inconclusive: 30.1 µM [inhibitor, partial curve, poor fit] |
| CCN(CC)S(=O)(=O)c1ccc2nc(NC(=O)c3ccc(Br)o3)sc2c1 | inconclusive: 13.5 µM [inhibitor, partial curve, poor fit] |
| Cc1cc(Nc2cccc(F)c2)n2nc(-c3ccco3)nc2n1 | inactive |
| CCOc1ccc(NC(=O)C(C)Oc2ccccc2C(=O)Nc2ccc(C)c(Cl)c2)cc1 (stereo not given) | active: 12 µM |
| O=C(NCc1ccc(Cl)cc1)c1noc2c1CCCC2 | inactive |
| O=C(NNC(=O)c1cc(-c2ccncc2)nc2ccccc12)c1ccccc1O | inconclusive: 23.9 µM [inhibitor, single point] |
| O=C(Nc1ccc2ccccc2n1)c1ccc(Cl)cc1 | active: 2.13 µM |
| Cc1ccc(-c2nnn(Cc3nc4ccccc4s3)n2)cc1 | inconclusive: 26.9 µM [inhibitor, single point] |
| Cc1nn(-c2ccccc2)cc1/C=N/NC(=O)c1cccs1 | inconclusive: 9.53 µM [inhibitor, partial curve] |
| COc1ccc2nc(SCC(=O)N3CCCCCC3)c(C#N)cc2c1 | inconclusive: 23.9 µM [inhibitor, partial curve, poor fit] |
| COc1ccc(N(CC(=O)N2CCN(c3ccccc3F)CC2)S(=O)(=O)c2ccc(C)cc2)cc1 | inactive |
| CC(C)S(=O)(=O)c1csc(NC(=O)Nc2ccc(Cl)cc2)c1Cl | inconclusive: 21.3 µM [inhibitor, single point] |
| Cc1c(NC(=O)c2cc3ccccc3o2)cccc1-c1nc2ccccc2o1 | inconclusive: 7.57 µM [inhibitor, full curve] |
| CCC(=O)N(Cc1cc2c(C)cc(C)cc2[nH]c1=O)C1CCCCC1 | inactive |
